For 20 molecules, binding signal results are on record in publication PMC9911399, “Two distinct binding modes provide the RNA-binding protein RbFox with extraordinary sequence specificity”.

Positions count from the first letter of the chain named. The list shows a part of the results.

B1: CUGUCCU (DNA:RNA)
RNA: GGGAGACCGGAAUUCAGAUUGUCCCUGUCCUUUAAAUCCCGUCGUAGCCACCA
DNA 1: CAATCTGAATTCCGGTCTCCC
DNA 2: TGGTGGCTACGACGGGATT
B2: GACCCGC (DNA:RNA)
RNA: B1 RNA with C25G, U26A, G27C, U28C, C30G, U31C
DNA 1: CAATCTGAATTCCGGTCTCCC
DNA 2: TGGTGGCTACGACGGGATT
B3: AAGUACG (DNA:RNA)
RNA: B1 RNA with C25A, U26A, C29A, U31G
DNA 1: CAATCTGAATTCCGGTCTCCC
DNA 2: TGGTGGCTACGACGGGATT
B4: CAACAUA (DNA:RNA)
RNA: B1 RNA with U26A, G27A, U28C, C29A, C30U, U31A
DNA 1: CAATCTGAATTCCGGTCTCCC
DNA 2: TGGTGGCTACGACGGGATT
B5: ACAAGAA (DNA:RNA)
RNA: GGGAGACCGGAAUUCAGAUUGUCCACAAGAAUUAAAUCCCGUCGUAGCCACCA
DNA 1: CAATCTGAATTCCGGTCTCCC
DNA 2: TGGTGGCTACGACGGGATT
B6: CCCGACU (DNA:RNA)
RNA: B1 RNA with U26C, G27C, U28G, C29A
DNA 1: CAATCTGAATTCCGGTCTCCC
DNA 2: TGGTGGCTACGACGGGATT
B7: GACCAGC (DNA:RNA)
RNA: GGGAGACCGGAAUUCAGAUUGUCCGACCAGCUUAAAUCCCGUCGUAGCCACCA
DNA 1: CAATCTGAATTCCGGTCTCCC
DNA 2: TGGTGGCTACGACGGGATT
B8: GCGAACC (DNA:RNA)
RNA: B7 RNA with A26C, C27G, C28A, G30C
DNA 1: CAATCTGAATTCCGGTCTCCC
DNA 2: TGGTGGCTACGACGGGATT
B9: GUAAAAC (DNA:RNA)
RNA: B5 RNA with A25G, C26U, G29A, A31C
DNA 1: CAATCTGAATTCCGGTCTCCC
DNA 2: TGGTGGCTACGACGGGATT
B10: CUGUCUU (DNA:RNA)
RNA: B1 RNA with C30U
DNA 1: CAATCTGAATTCCGGTCTCCC
DNA 2: TGGTGGCTACGACGGGATT
B11: CUCCCCU (DNA:RNA)
RNA: B1 RNA with G27C, U28C
DNA 1: CAATCTGAATTCCGGTCTCCC
DNA 2: TGGTGGCTACGACGGGATT
B12: CGGGGAG (DNA:RNA)
RNA: B5 RNA with A25C, C26G, A27G, A28G, A31G
DNA 1: CAATCTGAATTCCGGTCTCCC
DNA 2: TGGTGGCTACGACGGGATT
B13: UCUGGUU (DNA:RNA)
RNA: B5 RNA with A25U, A27U, A28G, A30U, A31U
DNA 1: CAATCTGAATTCCGGTCTCCC
DNA 2: TGGTGGCTACGACGGGATT
B14: CUACACG (DNA:RNA)
RNA: B1 RNA with G27A, U28C, C29A, U31G
DNA 1: CAATCTGAATTCCGGTCTCCC
DNA 2: TGGTGGCTACGACGGGATT
B15: CGCCGGA (DNA:RNA)
RNA: B7 RNA with G25C, A26G, A29G, C31A
DNA 1: CAATCTGAATTCCGGTCTCCC
DNA 2: TGGTGGCTACGACGGGATT
B16: UGUUGUC (DNA:RNA)
RNA: B5 RNA with A25U, C26G, A27U, A28U, A30U, A31C
DNA 1: CAATCTGAATTCCGGTCTCCC
DNA 2: TGGTGGCTACGACGGGATT
B17: GUUACGA (DNA:RNA)
RNA: B5 RNA with A25G, C26U, A27U, G29C, A30G
DNA 1: CAATCTGAATTCCGGTCTCCC
DNA 2: TGGTGGCTACGACGGGATT
B18: ACUUCGC (DNA:RNA)
RNA: B5 RNA with A27U, A28U, G29C, A30G, A31C
DNA 1: CAATCTGAATTCCGGTCTCCC
DNA 2: TGGTGGCTACGACGGGATT
B19: AACAGGU (DNA:RNA)
RNA: B5 RNA with C26A, A27C, A30G, A31U
DNA 1: CAATCTGAATTCCGGTCTCCC
DNA 2: TGGTGGCTACGACGGGATT
B20: GUACAGG (DNA:RNA)
RNA: B7 RNA with A26U, C27A, C31G
DNA 1: CAATCTGAATTCCGGTCTCCC
DNA 2: TGGTGGCTACGACGGGATT

This assay deals with T1, RBFOX1 RRM RbFoxmut (Fox-RRM*) (Homo sapiens, UniProt Q9NWB1 109-208, R118D;E147R;N151S;E152T).
T1 sequence: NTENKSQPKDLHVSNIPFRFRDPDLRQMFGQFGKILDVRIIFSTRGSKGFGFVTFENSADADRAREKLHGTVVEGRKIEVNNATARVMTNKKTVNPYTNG
Kind of assay: EMSA; HiTS-Eq, 1 nM pool, 10 min; buffer printed only for the single-RNA assays: 10 mM Tris pH 7.5, 150 mM NaCl, 3.4 mM EDTA, 0.001% NP-40, 30 C. As to conditions: tags: His6 N-terminal (pET28a); label: 5' 32P. A digest of the protocol: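 These values rest on relative association constants, computed from read-count changes of each RNA species versus the control reaction and normalised to the cognate motif. Reads came from free RNA recovered by 8% native PAGE after purified RbFox RRM (wild type or mutant) at increasing concentrations was equilibrated for 10 min in 50 µL with 1 nM of a 5′-radiolabelled pool with 7 randomized nucleotides and DNA-annealed flanks.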
A general note: Mobility shift assays separate free from complexed probe on a gel.
With B1, the binding signal was 0.0706 KA relative to UGCAUGU. On to B2, for which the binding signal was 0.0718 KA relative to UGCAUGU. Regarding B3, the binding signal was 0.127 KA relative to UGCAUGU. The figure for B4 is 0.0912 KA relative to UGCAUGU; for B5 it is 0.138 KA relative to UGCAUGU.

B6: the binding signal was 0.0768 KA relative to UGCAUGU. The figure for B7 is 0.079 KA relative to UGCAUGU; for B8 it is 0.0798 KA relative to UGCAUGU. In the case of B9, the binding signal is 0.0746 KA relative to UGCAUGU. The figure for B10 is 0.0668 KA relative to UGCAUGU; for B11 it is 0.057 KA relative to UGCAUGU. To B12 belongs 0.12 KA relative to UGCAUGU.

As to B13, the binding signal is 0.0853 KA relative to UGCAUGU. As to B14, the binding signal is 0.0908 KA relative to UGCAUGU. B15: the binding signal is 0.0866 KA relative to UGCAUGU. The figure for B16 is 0.468 KA relative to UGCAUGU. As for B17, the binding signal was 0.111 KA relative to UGCAUGU. The figure for B18 is 0.107 KA relative to UGCAUGU. To B19 belongs 0.0863 KA relative to UGCAUGU. For the molecule B20, the binding signal is 0.0913 KA relative to UGCAUGU.
